± gives the standard deviation of the averaged measurements. In all, about 33,000 sequences were measured (“E-score (dimensionless, -0.5 to 0.5)”: median about -0.049, highest 2% from about 0.37 on). The list shows a part of the results.
Each sequence was assayed on T1, PmTbr T-box DNA-binding domain (GST fusion) (assay: PBM E-score of 8-mer (E-score (dimensionless, -0.5 to 0.5)); Tbr is Tbrain of the sea star Patiria miniata (Pm) or the sea urchin Strongylocentrotus purpuratus (Sp); higher = stronger binding preference; most listed sequences are background and not binding sites). Details: the construct has about 5 more residues each side.
T1 sequence: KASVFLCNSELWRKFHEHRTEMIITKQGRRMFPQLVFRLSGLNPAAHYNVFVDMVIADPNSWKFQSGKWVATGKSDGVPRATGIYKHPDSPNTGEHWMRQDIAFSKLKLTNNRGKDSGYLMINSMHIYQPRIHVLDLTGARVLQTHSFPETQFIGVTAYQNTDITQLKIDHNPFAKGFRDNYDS
Procedure: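 Universal protein-binding microarray (Agilent AMADID 016060, 60-bp probes with a 35-bp variable region) incubated with 200 nM GST-fused Patiria miniata Tbr T-box DNA-binding domain (residues 272-466) in PBS pH 7.5. Scored for every ungapped 8-mer (given with its reverse complement) by the Universal PBM Analysis Suite as E-score (modified Wilcoxon-Mann-Whitney enrichment, range -0.5 to 0.5; >0.45 counts as bound) and Z-score of median probe intensity. Two replicate arrays (datasets 1 and 2).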
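Note: 200 nM protein in PBS on universal arrays averaged over duplicate arrays.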

| Sequence | PBM E-score of 8-mer |
| --- | --- |
| ATCAAGCA | -0.105 ± 0.11 |
| TATGACGA | -0.0839 ± 0.034 |
| CTGCGGTC | -0.0962 ± 0.029 |
| AGTCTATG | -0.314 ± 0.026 |
| CCTTAAAA | -0.0561 ± 0.019 |
| ATCCATAG | -0.255 ± 0.025 |
| CCAGTATA | -0.0676 ± 0.025 |
| CCCTGGTC | -0.0307 ± 0.0028 |
| CCCAATGC | -0.297 ± 0.0096 |
| ACCTGAAT | 0.165 ± 0.043 |
| GCGCGGAC | 0.21 ± 0.056 |
| GTAATTTA | -0.0571 ± 0.089 |
| CGTTTTAA | 0.0535 ± 0.015 |
| ACCAAAGG | -0.0856 ± 0.047 |
| CTAACTCA | 0.0526 ± 0.011 |
| ATCGAACA | -0.0797 ± 0.051 |
| CTAGATTC | 0.139 ± 0.039 |
| CGGATGGC | -0.158 ± 0.021 |
| ACATTTTA | 0.101 ± 0.12 |
| GCGTTCGA | 0.0996 ± 0.078 |
| ACTCCACA | 0.144 ± 0.064 |
| ATTCGGGC | -0.0615 ± 0.091 |

| Sequence | PBM E-score of 8-mer |
| --- | --- |
| CTACTCAC | 0.0932 ± 0.0048 |
| AACGGTTG | 0.0612 ± 0.024 |
| TCCCTAAA | -0.0831 ± 0.026 |
| GAGTATAA | -0.0162 ± 0.085 |
| AGACGGAA | -0.052 ± 0.0067 |
| ACGAATTA | -0.0448 ± 0.09 |
| AAAGTGAA | -0.00138 ± 0.15 |
| AAGTGACT | 0.092 ± 0.006 |
| CCTGGTGA | 0.101 ± 0.0051 |
| CAATCTCC | -0.056 ± 0.038 |
| AACCCGAC | 0.162 ± 0.0046 |
| GGCGCAAA | 0.255 ± 0.017 |
| AGCCCAAA | -0.246 ± 0.1 |
| CCCGCCAA | 0.161 ± 0.0064 |
| GCCAGAGC | -0.249 ± 0.03 |
| CGGGCGGC | -0.0379 ± 0.033 |
| ACAGCAGT | -0.0497 ± 0.058 |
| CGTGGGTC | 0.056 ± 0.08 |
| AGAGGGAC | -0.0717 ± 0.0033 |
| CGAAGCGA | 0.0214 ± 0.12 |
| AAACTCAA | -0.0977 ± 0.039 |
| ATGTTTCC | -0.148 ± 0.077 |

| Sequence | PBM E-score of 8-mer |
| --- | --- |
| CAGTCAGC | -0.0819 ± 0.0062 |
| CTTCAAAA | -0.0156 ± 0.0011 |
| AAAATGGA | -0.0268 ± 0.11 |
| ACTCAATA | 0.0101 ± 0.025 |
| GAATCGAA | 0.0477 ± 0.036 |
| CATGTACG | -0.00938 ± 0.079 |
| GCAATAAC | -0.0092 ± 0.029 |
| GACCGACA | 0.13 ± 0.056 |
| GCTTTATA | 0.0425 ± 0.073 |
| AATAGGAC | -0.359 ± 0.027 |
| AATCGTAC | -0.11 ± 0.0033 |
| ATAGTATA | 0.0331 ± 0.027 |
| CAGCGTTC | 0.137 ± 0.014 |
| AATGTATA | -0.208 ± 0.016 |
| GCATGGAA | -0.235 ± 0.023 |
| ACTGGACA | -0.0215 ± 0.0079 |
| ACTACTCT | -0.247 ± 0.0034 |
| GACCGAGC | -0.202 ± 0.0072 |
| ACGTGACA | 0.385 ± 0.023 |
| AGAAACCT | -0.13 ± 0.074 |
| ACACCGAA | 0.182 ± 0.02 |
| AGCGTCTA | 0.00302 ± 0.018 |

| Sequence | PBM E-score of 8-mer |
| --- | --- |
| GTCCGTCA | 0.107 ± 0.035 |
| TACAACTA | -0.185 ± 0.0033 |
| AGCAGCAC | 0.116 ± 0.039 |
| ATGAAACA | -0.0732 ± 0.037 |
| CTGTCGTC | 0.0769 ± 0.0034 |
| AGGGGTCG | -0.0869 ± 0.049 |
| CTGCTGAA | -0.067 ± 0.047 |
| GACCAGCC | -0.166 ± 0.018 |
| AACACTAT | 0.311 ± 0.006 |
| AGTGTCAC | 0.449 ± 0.0029 |
| CCGTGCAA | -0.0287 ± 0.039 |
| AGAGTAAG | 0.0807 ± 0.056 |
| GGATGACC | 0.0868 ± 0.033 |
| TGAGACAA | 0.156 ± 0.019 |
| AAGGCACT | -0.152 ± 0.041 |
| ATGCGGTG | -0.168 ± 0.046 |
| GAACCATA | -0.122 ± 0.05 |
| CCTTGAAA | -0.0493 ± 0.0057 |
| ATAAGCAA | -0.134 ± 0.049 |
| TGAGTACA | 0.0931 ± 0.048 |

From the supplement of paper PMC4166925
